Activation data for 83 molecules are collected here from PubChem BioAssay AID1346428 (National Center for Advancing Translational Sciences (NCATS), 2018).

Where “and” joins values, the source holds several entries; their conditions need not be identical. Equal entries are not always repeated. Hit rate of the full screen: of about 48,000 compounds, about 1,200 (2.5%) were called active. About 2% were inconclusive and are not listed.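 The calls were made as follows: active = activation of at least 60% and not above a set upper limit (about 1 call in 100 departs from these limits); inconclusive = activation of 40% to 60%, or above that upper limit; inactive = activation under 40%.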 Some of the results follow.

UniProt O75388, sequence (O75388 whole entry, looked up): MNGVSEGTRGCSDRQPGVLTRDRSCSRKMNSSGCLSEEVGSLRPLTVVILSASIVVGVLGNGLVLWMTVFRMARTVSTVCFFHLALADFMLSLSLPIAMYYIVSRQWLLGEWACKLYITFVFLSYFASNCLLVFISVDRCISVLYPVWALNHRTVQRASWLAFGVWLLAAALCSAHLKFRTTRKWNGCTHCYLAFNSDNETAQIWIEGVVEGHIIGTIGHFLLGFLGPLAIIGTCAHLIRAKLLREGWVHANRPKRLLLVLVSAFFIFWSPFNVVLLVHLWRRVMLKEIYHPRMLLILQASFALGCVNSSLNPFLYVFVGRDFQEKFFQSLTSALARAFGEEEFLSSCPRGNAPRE

This assay addresses Probable G-protein coupled receptor 32 (Homo sapiens) (UniProt O75388). Put plainly: qHTS for Agonists of Human Resolvin D1 Receptor DRV1. Also: 0% is about no effect. The following applies: CHO-K1 GPR32 beta-arrestin PathHunter luminescence, 90 min; at 76.9 µM; active compounds read high; zero percent set by DMSO-only wells. Summed up:
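CHO-K1 cells stably expressing ProLink-tagged GPR32 and Enzyme Activator-tagged beta-arrestin were seeded at 2,500 cells/well overnight, exposed to compounds for 90 min at 37 °C, then read by beta-Gal complementation chemiluminescence after 1 h detection reagent.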
(Quantitative high-throughput screening tests each substance at several concentrations.)
As for `NCCS(=O)(=O)O`, the activation was inactive: -0.0312% and inactive: 0.534%.

For `Cc1nc2ccn(Cc3ccccc3)c(=O)c2cc1C(=O)N1CCN(c2ccc(F)cc2)CC1`, the activation was inactive: 6.98%.

In the case of `COc1ccccc1NC(=O)Cn1c(SCC(=O)Nc2ccc(F)cc2)nc2ccccc21`, the activation was inactive: -26.8%.

On to `Cc1cc(NC(=O)n2ncc3c(C)cccc32)ccc1Br`, for which the activation was inactive: -4.63%.

For the molecule `CCc1ccc(NC(=O)CC2C(=O)N(c3cccc(C)c3)C(=O)N2Cc2ccc(F)cc2)cc1` (stereo not drawn), the activation was inactive: -28.1%.

For `CCOC(=O)c1cnc2cc(-c3ccc(OCC)cc3)nn2c1-c1ccccc1`, the activation is inactive: -16.6%.

In the case of `COCCc1nn2c(=O)cc(COC(=O)C(c3ccccc3)c3ccccc3)nc2s1`, the activation is inactive: -23.9%.

For the molecule `CCCCS(=O)(=O)N[C@@H](Cc1ccc(OCCCCC2CCNCC2)cc1)C(=O)O`, the activation was inactive: -6.02%.

`COc1ccc(NC(=O)CSc2nccn2Cc2ccc3c(c2)OCO3)cc1`: the activation is inactive: -11.7%.

As for `CCn1cc(C(=O)O)c(=O)c2cnc(N3CCNCC3)nc21`, the activation is inactive: -8.37%.

For `COc1ccc(C)cc1NC(=O)C(=O)NCC(c1cccnc1)N1CCc2ccccc21` (stereo not drawn), the activation is inactive: -30.7%.

`COc1ccc(C2=Nc3ccccc3NC(c3cccs3)=N2)cc1`: the activation was inactive: -22.7%.

As for `Cc1cc(C)c(NC(=O)CSc2ccc(-c3ccccn3)nn2)c(C)c1`, the activation is inactive: -3.29%.

Turning to `CN(C)CCNC(=O)CN1C(=O)COc2ccc(S(=O)(=O)N3CCCC3)cc21`, the activation was inactive: -15.3%.

Turning to `CCOc1ccccc1NC(=O)c1c(NC(=O)COc2ccccc2)sc2c1CCCC2`, the activation is active: 105%.

Regarding `Cc1ccc(-n2c3c(cc(C(=O)Nc4ccccc4C(N)=O)c2=O)C(=O)CC(C)(C)C3)cc1`, the activation is inactive: 15.8%.

With `O=C1CC(c2ccccc2)Sc2ccccc2N1Cc1ccc(F)cc1` (stereo not drawn), the activation was inactive: -28.9%.

`Cc1ccc(CNC(=O)CSc2ncc3c(n2)-c2cc(Cl)ccc2N(C)S3(=O)=O)cc1`: the activation is inactive: 0.0892%.

With `CCCCOc1ccc(CNC(=O)c2cccc(NC(=O)N3CCSc4ncccc43)c2)cc1`, the activation was inactive: 3.95%.

`Cc1c(C(=O)NCc2ccc(Cl)cc2)oc2ccc3c(c12)C(=O)CC(C)(C)O3`: the activation was inactive: -28.3%.

Regarding `COc1nc(C)nc(Cl)c1NC1=NCCN1`, the activation was inactive: -8.98% and inactive: -0.819%.

For `O=C(CCc1nc(CN2CCN(S(=O)(=O)c3ccc(Br)cc3)CC2)no1)N1CCCCC1`, the activation is inactive: -19.1%.

Consider `CCOc1ccccc1C1CC(=O)Nc2c1c(=O)n(C)c1ncnn21` (stereo not drawn), for which the activation was inactive: -5.96%.

`CCCCNC(=O)C1CCCN(S(=O)(=O)CCC)C1` (stereo not drawn): the activation is inactive: -5.91%.

In the case of `CCc1nn(CC(=O)NC2CC2)c(=O)c2cc3c(OC)cccc3n12`, the activation is inactive: -0.777%.

In the case of `COc1ccc(-n2ncc3c(NCCCOC(C)C)ncnc32)cc1`, the activation is inactive: -3.7%.

Take `COc1cccc(Cn2cc(C(=O)c3ccccc3)c(=O)c3cc4c(cc32)OCO4)c1`: the activation was inactive: 8.47%.

With `OCCCc1ccccc1`, the activation is inactive: -5.44%.

`COc1cc(NC(=O)Cn2c(=O)n(CC3CCC(C(=O)NCCc4ccccc4)CC3)c(=O)c3ccccc32)cc(OC)c1` (stereo not drawn): the activation was inactive: -2.71%.

Consider `COc1cc2cc(CNc3ccccc3)c(=O)n(CC(=O)Nc3cccc(Cl)c3C)c2cc1OC`, for which the activation was inactive: -16.9%.

As for `CO/N=C(/C(=O)N[C@@H]1C(=O)N2C(C(=O)OCOC(=O)C(C)(C)C)=C(C)CS[C@H]12)c1csc(N)n1`, the activation is inactive: -8.36%.

Consider `Cc1ccc(NCc2cccn2-c2nnc(N3CCC(C(=O)NCCc4ccc(Cl)cc4)CC3)s2)cc1`, for which the activation is inactive: -34%.

On to `CCc1ccc(C(=O)c2cn(CC(=O)Nc3ccc4c(c3)OCCO4)c3ccc(F)cc3c2=O)cc1`, for which the activation is inactive: 7.19%.

`CCc1nn2c(=O)cc(COC(=O)c3cccc(NC(=O)CCc4ccccc4)c3)nc2s1`: the activation was inactive: -15.5%.

Turning to `COc1ccc(-n2c(C)nc3c(cnn3-c3ccc(F)cc3)c2=O)cc1`, the activation was inactive: 21.2%.

In the case of `CCCCN(CC)CCCNC(=O)c1c(C)oc2ncnc(N3CCOCC3)c12`, the activation is inactive: -11.7%.

For the molecule `CCn1cc(/C=C(\NC(=O)c2ccc(OC)cc2)C(=O)NCCCn2ccnc2)c2ccccc21`, the activation is inactive: 8.79%.

On to `COc1ccccc1CNC(=O)C1CCN(c2nc3ccc(Cl)cc3[nH]2)CC1`, for which the activation was inactive: -9.09%.

For `COc1cc2c(=O)n(CCC(=O)NCC3CCCO3)c(=O)n(CC(=O)Nc3ccccc3C)c2cc1OC` (stereo not drawn), the activation was inactive: -9.9%.

On to `CCc1nn(CC(=O)NCCc2ccc(OC)cc2OC)c(=O)c2cc3occc3n12`, for which the activation is inactive: -31.9%.

For the molecule `CCCCc1ccc(-n2nc3cc(C)c(NC(=O)c4ccc(C#N)cc4F)cc3n2)cc1`, the activation was inactive: -6.39%.

Take `CCOc1ccccc1Nc1nc2ccccc2c2nncn12`: the activation is inactive: -4.86%.

For the molecule `COc1cccc2c1cc1c(=O)n(CC(=O)N3CCN(c4cccc(C)c4C)CC3)nc(C)n12`, the activation was inactive: -9.77%.

`CCc1cccc(NS(=O)(=O)c2c(C)[nH]c(=O)[nH]c2=O)c1`: the activation was inactive: 11.1%.

In the case of `CC(=O)c1c(C)oc2ccc(N(C(=O)Oc3ccccc3)S(=O)(=O)c3ccc(Cl)cc3)cc12`, the activation is inactive: 5.37%.

Take `Cc1ccc(Cn2nnc3c(=O)[nH]c(C4CCN(C(=O)Cc5ccccc5F)CC4)nc32)cc1`: the activation is inactive: -25.5%.

As to `Cc1ccc(CNC(=O)C2CCN(S(=O)(=O)N3CCCCC3)CC2)cc1`, the activation was inactive: -4.94%.

Take `COc1ccc(CCNC(=O)CCc2c(C)nc3c4c(C)cc(C)nc4nn3c2C)cc1OC`: the activation is inactive: 0.219%.

Consider `CCOc1ccc(CNC(=O)c2ccc3oc(=O)n(Cc4ccccc4)c3c2)cc1`, for which the activation was inactive: -5.97%.

With `COc1ccc2c(c1)cc(CNc1ccc(OC)c(OC)c1)c(=O)n2CC(=O)Nc1ccccc1C`, the activation was inactive: -38.6%.

As for `Fc1ccc(N2CCN(c3nc4ccccc4c4nc(-c5ccccc5)nn34)CC2)cc1`, the activation is inactive: 0.879%.

`CC1CCN(S(=O)(=O)c2ccc3c(c2)CCN3C(=O)Nc2ccccc2Br)CC1`: the activation is inactive: -22.3%.

On to `COc1ccc(OCC(=O)Nc2ccc(-c3nc4cc(C)cc(C)c4o3)cc2)cc1`, for which the activation was inactive: -4.1%.

Take `Cc1ccc(S(=O)(=O)Nc2cccc(-c3ccc(N4CCC(C)CC4)nn3)c2)s1`: the activation was inactive: 2.09%.

Regarding `Cc1ccc(NC(=O)C2CCCN(S(=O)(=O)c3ccc4[nH]c(=O)ccc4c3)C2)cc1Cl` (stereo not drawn), the activation was inactive: -7.23%.

In the case of `COc1ccc(CC(=O)Nc2nc3c(s2)CC(C)CC3)cc1` (stereo not drawn), the activation was inactive: 47.8%.

In the case of `COc1ccc2c(c1)c1c(c(=O)n(CCc3ccccc3)c(=O)n1Cc1cccc(Cl)c1)n2C`, the activation is inactive: 8.64%.

`CC(=O)Nc1cccc(NC(=O)c2cc3c(=O)n4cccc(C)c4nc3n2C)c1`: the activation is inactive: 7.77%.

Consider `O=C(NCc1cccc(Cl)c1)c1c2c(nc3ccccc13)C(=O)N(C1CCCCC1)C2`, for which the activation is inactive: -11.3%.

Take `CC1CN(C(=O)N2CCC(C(=O)NCCCc3ccccc3)CC2)c2cc(Cl)ccc2O1` (stereo not drawn): the activation is inactive: 22.1%.

Consider `CCOc1ccccc1Nc1ncnc2c1cnn2-c1ccc(C)cc1`, for which the activation is inactive: 12%.

For `CCCn1cc(S(=O)(=O)c2ccc(C)cc2)c(=O)c2cc(F)c(N3CCCC3)cc21`, the activation was inactive: -1.89%.

In the case of `COc1cc(NC(=O)c2ccc(C)c(Cl)c2)ccc1NC(=O)c1cc2ccccc2o1`, the activation is inactive: -8.08%.

With `O=C(Nc1ccc(-c2nc3cc(Cl)ccc3o2)cc1)c1cc2ccccc2o1`, the activation is inactive: 15.9%.

On to `COc1ccc(CNC(=O)c2ccc3nc(-c4ccc(F)cc4)c(-c4ccc(F)cc4)nc3c2)cc1`, for which the activation was inactive: -8.11%.

Take `CCC1(C)Cc2c(sc3nc(SC)n(-c4ccc(C)cc4)c(=O)c23)CO1` (stereo not drawn): the activation is inactive: -8.04%.

Consider `Cc1nnc(NC(=O)c2ccccc2)s1`, for which the activation is inactive: -2.83%.

On to `c1ccc(C(NCCNC(c2ccccc2)c2ccccc2)c2ccccc2)cc1`, for which the activation was inactive: -36.3%.

As for `Cc1ccc(NC(=O)c2ccccc2Br)c(C(=O)c2ccccc2)c1`, the activation was inactive: -13.7%.

Take `Cc1cc(NC(=O)CCNS(=O)(=O)c2cccc3nsnc23)ccc1Br`: the activation is inactive: 33.4%.

Turning to `COc1ccc(Cn2c(SCc3ccc(C(=O)NC(C)c4ccccc4)cc3)nc3cccnc32)cc1` (stereo not drawn), the activation is inactive: 20.5%.

Consider `CC1CCN(c2nc3ccc(C(=O)NCc4ccccc4)cc3s2)CC1`, for which the activation was inactive: 7.73%.

On to `CCc1ccc(S(=O)(=O)c2nnn3c2nc(Nc2ccc(NC(C)=O)cc2)c2sccc23)cc1`, for which the activation was inactive: -8.35%.

Regarding `CCOc1ccc(N(Cc2ccccc2)C(=O)c2nc(S(C)(=O)=O)ncc2Cl)cc1`, the activation is inactive: -2.59%.

In the case of `Cc1cccc(N2CCN(C(=O)CS(=O)(=O)Cc3nc(-c4ccccc4C)oc3C)CC2C)c1` (stereo not drawn), the activation is inactive: 34.1%.

`CCOC(=O)CNC(=O)N1CCN(c2nnc(C)c3c(C)n(-c4ccc(Cl)cc4)nc23)CC1`: the activation was inactive: -1.44%.

Consider `COc1cc(NC(=O)CCCOc2cc(=O)n(C)c3ccccc23)cc(OC)c1OC`, for which the activation is inactive: 2.79%.

For `COc1ccc(OC)c(NC(=O)Cn2c(=O)cc(-c3ccccc3)c3c(C)nn(C)c32)c1`, the activation was inactive: -9.49%.

For the molecule `O=S(=O)(NCc1nc2cccnc2n1Cc1ccccc1Cl)c1ccc(F)c(Cl)c1`, the activation was inactive: -19.6%.

As for `CC(=O)c1c(C)oc2c1cc(NS(=O)(=O)c1ccc(Cl)c(C)c1)c1ccccc12`, the activation was inactive: 37.5%.

On to `Cc1cccc(OCC(=O)Nc2nnc(S(=O)(=O)N3CCc4ccccc43)s2)c1`, for which the activation is inactive: -0.0358%.

For the molecule `O=C(Nc1ccc(Cl)cc1)C(NS(=O)(=O)c1cccs1)c1ccccc1` (stereo not drawn), the activation is inactive: 34.7%.

For `Cc1ccc(-n2c(Cc3ccccc3)nnc2SCc2nc(-c3cccs3)no2)cc1C`, the activation was inactive: 6.73%.
